The other results are listed elsewhere or left out. At the low end of the ranking the order means little.

This assay has as its target SIX1 homeodomain (reference allele) (UniProt Q15475). Put plainly: universal protein binding microarray. The note with it: Universal all-10-mer PBM (8x60K, AMADID 030236), 300 nM GST-tagged protein, Alexa Fluor 488 anti-GST; buffer, salt, pH and temperature not stated; high values mean tight binding; most listed sequences are background and not binding sites; double strand, one strand shown.
In the case of AATACCAA, the binding signal was 0.278 E-score.
On to CCACCATA, for which the binding signal is 0.0922 E-score.
AAGAGATC: the binding signal was 0.338 E-score.
GAAGAAGA: the binding signal was found to be 0.0245 E-score.
As for GTCCCTCA, the binding signal was -0.121 E-score.
For the sequence CCGACTAA, the binding signal was -0.0298 E-score.
For ACCGGGGA the value was -0.0595 E-score; for CACGCTGG, 0.0173 E-score; for CACATATG, -0.00899 E-score.
As to AGGCTGTA, the binding signal amounted to 0.11 E-score.
For GTATCTCA the value was 0.392 E-score; for GGCGGTCA, -0.168 E-score; for TCCTCAGA, 0.0885 E-score.
For ACATGGTG the value was 0.215 E-score; for GGATGGTA, 0.214 E-score.
The same measure for CGTGGGGA: 0.0959 E-score.
With ACCGTTGA, the binding signal came out at 0.0961 E-score.
For GTTGCACA the value was -0.176 E-score; for AACCACTG, 0.052 E-score; for ATGGGGCA, 0.0228 E-score.
The same measure for CTGGAGCA: -0.108 E-score; for CATTTTCG: -0.102 E-score; for ATTGCTGA: -0.0798 E-score.
On to AGGGTCAT, for which the binding signal is -0.0229 E-score.
For ACCTATTA the value was -0.0821 E-score; for CAGGCCGC, -0.284 E-score.
The same measure for AGACTGAC: -0.0877 E-score; for TCGCTTCA: -0.12 E-score.
The same measure for GAGGTTAC: -0.112 E-score; for CCAACCAG: -0.0849 E-score; for CGTTGGCA: -0.0301 E-score.
For AGTGTGCG, the binding signal was -0.228 E-score.
The same measure for CTTAGGGC: -0.0777 E-score; for GACGGGGC: 0.0379 E-score.
For CAGAGTGC the value was -0.351 E-score.
The same measure for GAAGTCTA: -0.147 E-score; for TAACGATA: 0.315 E-score; for AGACTGGC: -0.246 E-score.
For GCTGACCC, the binding signal is -0.185 E-score.
As to ACTTTACG, the binding signal was 0.0199 E-score.
With CGATGGCC, the binding signal is -0.222 E-score.
The same measure for ATCCCTTC: 0.303 E-score; for AGTTTTCA: -0.276 E-score.
Regarding GAACTCGA, the binding signal is -0.279 E-score.
For AGCAATCA the value was -0.153 E-score; for AATAGACT, -0.227 E-score.
For TAGTGAAA the value was -0.0253 E-score; for CTAAGGTC, -0.264 E-score; for CGGTGCTC, -0.0105 E-score.
ACTTGCAA: the binding signal was -0.00632 E-score.
For the sequence ATCGATAC, the binding signal amounted to 0.446 E-score.
The same measure for GAACATGA: -0.00765 E-score; for AGTGGGAC: -0.187 E-score.
For ATTACTCC the value was 0.126 E-score; for CGCGTTTA, -0.127 E-score.
The same measure for ACTATATG: 0.1 E-score; for GAGTCGGA: -0.0206 E-score.
On to CTCAGTTC, for which the binding signal is -0.181 E-score.
For CACTAGAC the value was -0.0493 E-score; for AAGTTAAA, -0.137 E-score.
For CAGGCCCG the value was -0.0995 E-score; for CAATTATC, 0.0355 E-score.
Turning to AACGGTGT, the binding signal amounted to 0.253 E-score.
For CATGATAA the value was 0.0701 E-score; for GTATTCAC, 0.147 E-score.
The same measure for CAGCGCTC: -0.242 E-score; for ATGCCAGC: -0.0823 E-score.
On to CTTAGAGA, for which the binding signal came to 0.0033 E-score.
The same measure for AGCCTTTC: -0.168 E-score; for CTGGCCTA: -0.192 E-score; for ATACATAA: 0.165 E-score.
The same measure for CGGTTGTC: -0.157 E-score; for GTTATGCA: -0.173 E-score.
As to ACCAAAGT, the binding signal was -0.125 E-score.
The same measure for ACCATATG: 0.128 E-score; for ACTTTTGG: -0.232 E-score; for ACATTGGA: 0.125 E-score.
The same measure for AACTTGAA: -0.0612 E-score; for CCCAGGAG: 0.076 E-score.
Regarding CAGGCAGC, the binding signal is -0.173 E-score.
For GGTGAGCA the value was 0.0318 E-score.
For AAGTGTGC the value was -0.0528 E-score; for AAGACACT, 0.0292 E-score.
For ACAAGGTG the value was 0.0108 E-score.
For CAAGATGC, the binding signal came out at 0.0911 E-score.
The same measure for ACGAGGCC: -0.229 E-score; for ATTCCAAT: 0.0114 E-score.
The same measure for ACTGCTGA: -0.124 E-score; for GGAGCTTA: -0.0968 E-score; for GCCCTGAC: -0.148 E-score.
In the case of CTCATGGA, the binding signal worked out at 0.0353 E-score.
CACCTCTC: the binding signal is 0.00349 E-score.
For AAATCCGC the value was 0.0214 E-score; for GTACTGTA, -0.176 E-score; for GGATTGCC, 0.0912 E-score.
The same measure for CGGATCCG: 0.417 E-score; for AGTACCTA: -0.0422 E-score; for CCAGAGGA: -0.0169 E-score.
The same measure for ACTGTGTG: 0.0598 E-score.
With CAAGAACC, the binding signal is -0.165 E-score.
Consider CCGCTAAC, for which the binding signal was -0.103 E-score.
Turning to GATAAGGA, the binding signal is 0.183 E-score.
For TAAGTGGA the value was -0.0381 E-score.
For TCAACGCA, the binding signal is -0.11 E-score.
For ACTCTCGG the value was -0.0476 E-score; for AGAAGGAG, 0.00823 E-score; for AAACAGAT, 0.111 E-score.
For CCTTACAC the value was 0.119 E-score; for ACGCATCA, 0.0402 E-score.
For CAGGGGCC, the binding signal was -0.176 E-score.
Take CATACGAA: the binding signal is 0.00525 E-score.
The same measure for GCTCGGGA: -0.0528 E-score; for AGTAAAGC: -0.0343 E-score.
The same measure for GCCTGACC: -0.127 E-score; for AAAGTGTT: -0.196 E-score; for ACCTGGGG: 0.0735 E-score.
For ACCCTTTA the value was 0.0286 E-score.
In the case of CTTGTTAC, the binding signal is -0.135 E-score.
The same measure for GCTGCAGC: -0.321 E-score.
For AGAACAGC the value was -0.273 E-score.
The same measure for ATGATGGG: -0.094 E-score; for CCGGGGGA: -0.0541 E-score.
Regarding AATAGGGG, the binding signal came out at 0.217 E-score.
Take ATCCGCTC: the binding signal was found to be 0.377 E-score.
With AAGGTGTC, the binding signal was 0.373 E-score.
As for CCCGGACA, the binding signal came out at 0.061 E-score.
The same measure for CACTCTCG: -0.00186 E-score; for GCAAACAC: -0.0449 E-score; for AAGCTCGC: -0.211 E-score.
For CAAATACG the value was 0.03 E-score.
The same measure for ACAACCGG: -0.171 E-score; for AGGGAGGG: -0.0797 E-score; for ATATGCTC: 0.29 E-score.
CGATCAAA: the binding signal was 0.00681 E-score.
CTCTTCTC: the binding signal was 0.0511 E-score.
Turning to TGAGTAAA, the binding signal was -0.0642 E-score.
Consider CTACAGAC, for which the binding signal was -0.182 E-score.
For CTTTGGGC the value was -0.000765 E-score; for ATTTCATG, -0.223 E-score.
On to TCCGGAAA, for which the binding signal was found to be 0.0168 E-score.
The same measure for CGACAGAA: 0.153 E-score; for AACCCCTA: 0.0636 E-score.
For AGAGAGAG the value was -0.126 E-score.
The same measure for CCGTCCAC: -0.071 E-score; for GATTACTA: -0.0362 E-score; for GCATCGAA: 0.116 E-score.
Take ACAGGGCC: the binding signal is -0.236 E-score.
For AAGATGAA the value was -0.0473 E-score; for CGAATATA, 0.102 E-score.
The same measure for ATAGGCTC: 0.11 E-score; for GATGAGGA: 0.15 E-score.
For AACCTCAA the value was -0.145 E-score.
For the sequence CCCGATAA, the binding signal came to 0.139 E-score.
For ATGACCAG the value was -0.0983 E-score.
For GTATTCCA the value was 0.202 E-score; for GAAGCCCC, 0.0222 E-score.
The same measure for ACAGAGTC: -0.0356 E-score.
For the sequence ACCGGACA, the binding signal was -0.0653 E-score.
As to ATGCAAGG, the binding signal is -0.0597 E-score.
In the case of CCGCTTCC, the binding signal is -0.101 E-score.
Take AATTTTAA: the binding signal is -0.0573 E-score.
Turning to ACGTACAC, the binding signal worked out at 0.105 E-score.
The same measure for GAGTGCCC: -0.107 E-score; for CGTGAACC: -0.12 E-score; for GCGCAAGC: -0.236 E-score.
On to AGACACAC, for which the binding signal was -0.137 E-score.
GCTGTACC: the binding signal is -0.135 E-score.
As to TAGCTTAA, the binding signal is -0.101 E-score.
Turning to ACAACCAG, the binding signal is -0.0344 E-score.
The same measure for AGTGGCAC: -0.0284 E-score; for TCCATGAA: -0.057 E-score; for CATAGGCG: -0.0269 E-score.
